Reference: a compilation of properties of binary mixtures (doi:10.1021/je900544m)
The densities may have been worked out from excess volumes.

Assay: xn = mol fraction of the nth substance listed
Conditions: 101 kPa

CCO + C[N+](C)(C)CCO.O=C([O-])C1CCCCC1
x1 = 1
Conditions	mass density [kg/m3]
293.15 K	789.9
303.15 K	781.3
308.15 K	777
313.15 K	772.6
318.15 K	768.1
323.15 K	763.6

C[N+](C)(C)CCO.O=C([O-])C1CCCCC1 + CCO
mass density [kg/m3]
Conditions	x2 = 0	x2 = 0.1001	x2 = 0.2	x2 = 0.3	x2 = 0.4001	x2 = 0.5	x2 = 0.6	x2 = 0.7	x2 = 0.8	x2 = 0.9
293.15 K	1070.7	–	1054.6	–	1034.5	1020.6	1003.9	977.6	939.5	884.1
298.15 K	1067.8	1060	1051.7	1042.8	–	1017.5	1000.8	974.4	936.1	880.4
303.15 K	–	1057.1	1048.7	1039.8	1028.4	1014.4	997.7	–	932.7	–
308.15 K	1062	–	1045.7	1036.8	1025.3	1011.4	–	968	929.3	873
313.15 K	1059.1	1051.2	1042.8	1033.8	1022.3	1008.4	–	964.8	925.9	869.3
318.15 K	1056.2	–	1039.8	–	1019.3	1005.4	988.4	961.5	–	865.6
323.15 K	1053.3	1045.4	1036.9	1027.8	–	1002.4	985.3	958.3	919.1	861.8
